# Experimental data taken from PubChem BioAssay AID463173 (ICCB-Longwood Screening Facility, Harvard Medical School, 2010).
# The campaign covered roughly 52,000 compounds. About 4,300 (8.3%) were called active. Rule as the data show it: active = survival mostly below about 52% (no sharp cut-off); inactive = mostly above about 56%. Some of the results follow.
# Test system: DeltatarO mutant
# Test: S. aureus survival, RN4220 and DeltatarO strains – OD600, teichoic acid synthesis inhibitors, primary screen (AID 463173)
# Settings: S. aureus RN4220 wild type/DeltatarO growth, OD600, 18 h, stronger effect = lower value, screened at 18.75 µg/mL (by protocol)
row,Structure (SMILES),survival
1,COc1ccc(Cl)cc1-n1c(CCC(=O)O)ccc1-c1ccc(C)cc1,inactive: 73%
2,CC1CCCN(c2nc3nonc3nc2Nc2cccc(Cl)c2)C1 (stereo unspecified),active: 0%
3,COc1ccc(-c2nc3ccc(C(=O)NCc4ccc(C)cc4)cc3nc2-c2ccc(OC)cc2)cc1,inactive: 86%
4,CC1CCN(S(=O)(=O)c2ccc3c(c2)N(CC(=O)Nc2ccc(F)c(Cl)c2)C(=O)CO3)CC1,inactive: 90%
5,COc1ccc(NC(=O)c2oc3ccccc3c2NC(=O)Cc2ccc(F)cc2)c(OC)c1,inactive: 85%
6,Cc1cccc(NC(=O)CN(c2cccc(C(F)(F)F)c2)S(C)(=O)=O)c1,inactive: 86%
7,CCOc1cccc(C2c3c(oc4cc(C)c(C)cc4c3=O)C(=O)N2c2nc(C)c(C)s2)c1 (stereo unspecified),active: 74%
8,COc1cccc(-c2cc(C(=O)Nc3cccnc3Cl)no2)c1,inactive: 61%
9,Cc1ccc(NC(=O)CN2C(=O)C(C)(C)c3cc(S(=O)(=O)N4CCCCC4)ccc32)c(Br)c1,inactive: 67%
10,Cn1nc(C(=O)Nc2ccccc2C#N)c2c1-c1ccccc1SC2,inactive: 89%
11,CC(C)NC(=O)c1ccc2c(c1)nnn2C,inactive: 78%
12,Cc1c(C(=O)Nc2cccc(Cl)c2)oc2ccc(S(=O)(=O)N3CCOCC3)cc12,inactive: 72%
13,CCC(C)NC(=O)Cn1cnc2sc(C)c(S(=O)(=O)N3CCN(c4ccccc4OC)CC3)c2c1=O (stereo unspecified),inactive: 65%
14,COc1cccc(NC(=O)N2CCC(CN3CCOCC3)CC2)c1,inactive: 94%
15,COc1ccc(N2C(=O)CCSC23C(=O)N(Cc2ccc(F)cc2)c2ccccc23)cc1Cl (stereo unspecified),inactive: 78%
16,Cc1cccc(N2CCN(S(=O)(=O)c3c(C)nc4scc(C)n4c3=O)CC2C)c1 (stereo unspecified),inactive: 89%
17,Cc1ccc(CCNC(=O)CN2N=C(c3ccc(C)cc3)CCC2=O)cc1,inactive: 74%
18,CCc1ccccc1NC(=O)Cn1c(=O)ccc2cc(S(=O)(=O)N3CCC(C)CC3)ccc21,inactive: 92%
19,CC1CCN(C(=O)c2ccc(NC(=O)c3nsc4ccccc34)cc2)CC1,inactive: 72%
20,CCOC(=O)c1sc(NC(=O)c2nc3nc(C)cc(C(F)F)n3n2)c(C(=O)OC)c1C,inactive: 67%
21,COc1cccc(NS(=O)(=O)c2cc(-c3cnc(C4CC4)o3)ccc2C)c1,inactive: 77%
22,COc1ccc(-c2noc(C3CC(=O)N(c4ccc5c(c4)OCCO5)C3)n2)c(OC)c1 (stereo unspecified),inactive: 98%

row,Structure (SMILES),survival
1,COC(=O)c1c(NC(=O)/C(C#N)=C/c2ccc(OC)cc2)sc2c1C(C(=O)OC)CC2 (stereo unspecified),inactive: 88%
2,CCc1ccccc1NC(=O)[C@H](Cc1ccccc1)N1Cc2ccccc2C1=O,inactive: 77%
3,O=C(O)CSc1nc2ccccc2nc1N1CCCCC1,inactive: 56%
4,COc1ccc(CCNC(=O)CSc2cn(CCNC(=O)c3ccc(OC)c(OC)c3)c3ccccc23)cc1OC,inactive: 77%
5,OCCCCNc1cccc2ccccc12,inactive: 93%
6,CCOc1ccc(Nc2oc(/C=C/c3cc(OC)c(OC)c(OC)c3)nc2C#N)cc1,inactive: 58%
7,O=C(COC(=O)c1cc(-c2cccs2)nc2ccccc12)c1ccc(Cl)cc1,inactive: 50%
8,COc1cc(C(=O)NCCSc2c(C)[nH]c3ccccc23)cc(OC)c1OC,inactive: 76%
9,COc1ccc(NC(=O)CN(C)S(=O)(=O)c2cnc[nH]2)cc1,inactive: 95%
10,CCOc1ccc(NC(=O)CSc2nc3ccccc3c(=O)n2CCC(=O)NC2CCCCC2)cc1,inactive: 117%
11,O=C(NC1CC(=O)N(c2ccc(Cl)cc2)C1)C1CCCCC1 (stereo unspecified),inactive: 87%
12,Cc1ccc(CNc2c(C)c(C)nc3nncn23)cc1,inactive: 85%
13,COc1ccc(-c2cn3c(n2)sc2cc(C(=O)NCc4ccccc4)ccc23)cc1,inactive: 63%
14,COc1ccc(OC)c(C2CC(=O)Nc3ccc4ccccc4c32)c1 (stereo unspecified),inactive: 111%
15,COc1ccc(Cc2nc3ccc(C(=O)NCCc4ccc(Cl)cc4)cc3o2)cc1,inactive: 75%
16,CCN(C(=O)CCS(=O)(=O)c1cc(Br)cc2c1N(C(=O)C1CC1)CC2)c1cccc(C)c1,inactive: 85%
17,CC1Cc2cc(S(=O)(=O)CCC(=O)Nc3ccc(OC(F)(F)F)cc3)ccc2N1C(=O)C1CC1 (stereo unspecified),inactive: 85%
18,NC(=O)c1noc(C(=O)N(c2ccc(OC(F)(F)F)cc2)C(C(=O)NC2CCCC2)c2c[nH]c3ccccc23)c1N (stereo unspecified),inactive: 104%
19,COc1ccccc1C1=Nn2c(nc3sc(C(=O)Nc4ccccc4Cl)c(C)c3c2=O)SC1,inactive: 86%
20,Cc1ccc(C)c(C(=O)N2CCC(c3nc4c(nnn4Cc4ccccc4)c(=O)[nH]3)CC2)c1,active: 39%
21,CCOCCCn1c(SCC(=O)Nc2ccccc2OC)nc2c(oc3ccccc32)c1=O,inactive: 82%
22,COc1ccc(C2c3cc(OC)c(OC)cc3CC(=O)N2c2cccc(C#N)c2)cc1 (stereo unspecified),inactive: 84%

row,Structure (SMILES),survival
1,O=C(c1ccco1)N1CCN(C(c2ccccc2)c2nnnn2Cc2ccccc2)CC1 (stereo unspecified),inactive: 88%
2,CC(NC(=O)c1c(O)nc2ccccn2c1=O)c1ccccc1 (stereo unspecified),inactive: 54%
3,Cc1cccc(C)c1NC(=O)CSc1nccn1C,inactive: 74%
4,Cc1ccc(C)c(CN2C(=O)c3ccccc3S(=O)(=O)c3ccc(C(=O)N4CCN(Cc5ccccc5)CC4)cc32)c1,inactive: 59%
5,CCOc1ccc(CNC(=O)c2cccc(Nc3nc4ccccc4n4nnnc34)c2)cc1OC,inactive: 50%
6,CCOc1ccc(NC(=O)c2oc3ccccc3c2NC(=O)C(C)Oc2ccccc2)cc1 (stereo unspecified),inactive: 75%
7,CC(=O)c1cc2c(cc1N/C(=N/S(=O)(=O)c1ccc(C)cc1)c1ccc(Cl)cc1)OCO2,active: 37%
8,O=C(CCn1c(=O)c2cccn2c2cccnc21)NCc1cccc(Br)c1,inactive: 82%
9,Cc1ccc2c(=O)cc(C(=O)Nc3ccc(S(=O)(=O)N4CCCC(C)C4)cc3)oc2c1C (stereo unspecified),active: 51%
10,CCOc1ccc(Sc2cc(C(=O)NCCc3ccc(OC)c(OC)c3)c3ccccc3n2)cc1,inactive: 86%
11,CCn1cc(C(=O)N2CCN(c3ccccc3OC)CC2)c(=O)c2cc(S(=O)(=O)N3CCCCC3)ccc21,inactive: 77%
12,COc1ccc(-c2nn(-c3ccccc3)cc2C(=O)Nc2ccccc2OC)cc1,active: -2%
13,Cc1cccc(C(=O)Nc2ccccc2-c2nc(-c3ccccc3)no2)c1,inactive: 57%
14,CC(=O)c1c(C)oc2ccc(N(C(=O)Oc3ccccc3)S(=O)(=O)c3ccc(Br)cc3)cc12,inactive: 131%
15,O=C(Nc1ccccc1)Nc1cccc2nsnc12,inactive: 69%
16,CC(C)CN(c1ccccc1)S(=O)(=O)c1nnc(NC(=O)c2ccco2)s1,active: 31%
17,CC1=C(c2ccc(C)c(C)c2)S(=O)(=O)N=C1N1CCN(c2cccc(C(F)(F)F)c2)CC1,inactive: 87%
18,CCOc1ccc(-n2c(=O)c3c4c(sc3n(Cc3cccc(Cl)c3)c2=O)CCCC4)cc1,inactive: 68%
19,CCCNC(=O)N1CCc2cc(OC)c(OC)cc2C1c1cc2cc3c(cc2[nH]c1=O)OCO3 (stereo unspecified),inactive: 91%
20,O=C(NCC(c1ccc2c(c1)OCO2)N1CCOCC1)c1ccc(F)cc1 (stereo unspecified),inactive: 55%
21,Cc1ccc(/C=C(\C#N)c2nc(-c3cc4c(ccc5ccccc54)oc3=O)cs2)cc1,inactive: 122%
22,CCCC(=O)N(c1ccc2oc(-c3ccccc3)c(C(=O)OCC)c2c1)S(=O)(=O)c1ccc(C)cc1,inactive: 140%

row,Structure (SMILES),survival
1,COCCCNC(=O)Cn1c(=O)n(CCCC(=O)NCc2ccc(C)cc2)c(=O)c2ccccc21,inactive: 101%
2,CCCCN1CC(c2nc3ccccc3n2CCCCOc2c(C)cccc2C)CC1=O (stereo unspecified),active: 46%
3,CCN(C(=O)c1sc2nc3n(c(=O)c2c1C)CCCCC3)c1ccccc1F,inactive: 51%
4,CCc1ccc(CNC(=O)c2cc3c(=O)oc4ccc(C)cc4c3s2)cc1,inactive: 82%
5,Cc1ccc(NC(=O)Nc2nnc(N3CCCCC3)s2)c(C)c1,inactive: 100%
6,COc1ccc(NC(=O)c2ccc3snnc3c2)cc1OC,inactive: 113%
7,COc1cc(OC)cc(-n2c(=O)[nH]c3cc(C(=O)NCCc4ccc(C)cc4)ccc3c2=O)c1,inactive: 77%
8,CCNc1nc(NCC)nc(N(n2cnnc2)S(=O)(=O)c2ccc(C)cc2)n1,active: 1%
9,Cn1cc(C(=O)NCc2ccc(F)cc2)c(=O)c2cc(S(=O)(=O)N3CCCCC3)ccc21,inactive: 59%
10,O=C(CCSCc1ccccc1F)N1CCN(c2ccc(F)cc2)CC1,inactive: 91%
11,COc1cc(OC)c(NC(=O)c2oc3ccc4c(c3c2C)C(=O)CC(C)(C)O4)cc1Cl,inactive: 106%
12,CCOc1ccccc1NC(=O)Cn1c(=O)n(Cc2ccc(C(=O)NCCCOC)cc2)c(=O)c2ccccc21,inactive: 81%
13,CC(C)c1ccc(Nc2nc3ccc(C(=O)c4ccccc4)cc3n3cnnc23)cc1,inactive: 81%
14,O=C(NC1CCCCC1)C(Cc1ccccc1)N1C(=O)C2C3C=CC(C3)C2C1=O (stereo unspecified),inactive: 92%
15,O=C(Cn1cnc2ccccc2c1=O)Nc1ccc(S(=O)(=O)Nc2nccs2)cc1,inactive: 72%
16,COC(=O)c1ccccc1NC(=O)c1nc(SCc2ccccc2C)ncc1Cl,inactive: 79%
17,Cc1cc(C)cc(C(=O)Nc2ccc(-c3cn4cccnc4n3)cc2)c1,inactive: 68%
18,Cn1c(=O)c(C(=O)NCCN2CCNCC2)c(O)c2ccccc21,inactive: 68%
19,COc1ccc(-n2cc3c(c2-c2cccc(Br)c2)c(=O)n(C)c(=O)n3C)cc1OC,inactive: 80%
20,COc1cccc(NC(=O)Cn2c(=O)n(Cc3ccccc3)c(=O)c3c4c(sc32)CN(C(C)=O)CC4)c1,inactive: 103%
